# In PubChem BioAssay AID1479 (National Center for Advancing Translational Sciences (NCATS), 2009):
# In all, about 280,000 compounds went through this assay and about 820 (0.29%) were called active. Inconclusive results (about 1%) are left out. Calls follow the shape of the dose curve; as a rule, active = well fitted curve in either direction with a large enough effect; inconclusive = small, poorly fitted or top-dose-only effect; inactive = flat fitted curve, though single readings scatter. The entries are a selection whose mix differs from that of the whole data set. Some compounds were tested as several samples or in several runs, with calls that do not always agree.
# Assay: Total Fluorescence Counterscreen for Inhibitors of the Interaction of Thyroid Hormone Receptor and Steroid Receptor Coregulator 2
# Conditions: TRb/SRC2 Texas Red total fluorescence interference; series mostly up to 106 µM; fluorescence change, negative = quenching: at the top concentration
# Source text: NIH Molecular Libraries Probe Production Network [MLPCN]
# NIH Chemical Genomics Center [NCGC]
# Assay Provider: R. Kip Guy, St. Jude Children's Research Hospital
# Thyroid receptor (TR) regulates many homeostatic processes including basal metabolism, cardiovascular function, body weight, and lipid trafficking. TR modulators are potential therapeutics for obesity and hyperlipidemias but current thyroid analogs have undesirable side effects, particularly cardiac stimulation. To identify inhibitors that specifically prevent the interaction of TR with the steroid receptor […] 2 (SRC2), a fluorescence polarization assay was screened. This assay detects interaction of the ligand-binding domain of human TRb with a Texas Red labeled SRC2 peptide, corresponding to a 20 amino acid region of the nuclear receptor interaction domain (Arnold et al., 2006). Total fluorescence (555 nm excitation and 632 nm emission) was measured to identify potential fluorescent and light absorbing compounds. Such compounds may be artifacts that interfere with the fluorescence polarization assay.
# Arnold, L. A.; Estebanez-Perpina, E.; Togashi, M.; Shelat, A.; Ocasio, C. A.; McReynolds, A. C.; Nguyen, P.; Baxter, J. D.; Fletterick, R. J.; Webb, P.; Guy, R. K. A high-throughput screening method to identify small molecule inhibitors of thyroid hormone receptor coactivator binding. Sci STKE 2006, p 13.
# NCGC Assay Protocol Summary:
# For screening, 5 uL/well 0.6 uM TRb and 20 nM SRC2 Texas Red in protein buffer (20mM Tris hydrochloride, 100mM NaCl, 10% glycerol, 1mM EDTA, 0.01% NP-40, 1mM DTT, 1uM T3 and 5% DMSO) was dispensed into black solid 1536-well plates (Grenier) using a solenoid-based dispenser. Following transfer of 23 nL compound or DMSO vehicle by a pin tool, the plates were centrifuged 15 s at 1000 RPM and incubated 5 hr at ambient temperature. The plates were read by an Envision (Perkin Elmer) to detect fluorescence polarization of SRC2 Texas Red (555 nm excitation and 632 nm emission). Data were normalized to unbound (all components except TRb) and bound SRC2 Texas Red controls. Total fluorescence (TF) was calculated as follows: TF = S + 2P where S and P are fluorescence readings in the parallel and perpendicular channels, respectively.
# Keywords: NIH Roadmap, MLPCN, MLI, MLSMR, qHTS, NCGC, qHTS, thyroid hormone receptor, steroid receptor coactivator, fluorescence polarization
# % is scaled to controls: 0 for no effect and ±100 for the full control effect; potency is read from the fitted curve at half-maximal effect; tags tell the direction and shape of the fitted curve or compound fluorescence and quenching.
Structure (SMILES),"fluorescence change, negative = quenching",Potency
O[C@@H]1CO[C@H]2C1OC[C@@H]2O (stereo not given in full),inactive: -2.25%,–
O=C(NCc1ccccc1)c1nc(-c2ccc(Cl)cc2)n2c1CCCCC2,–,active: 20 µM [quencher]
COc1cccc(NC(=O)C(=O)NCC(c2cccnc2)N2CCN(c3ccccc3)CC2)c1 (stereo not given),–,active: 100 µM [quencher]
COc1cc(/C=C2/C(C)=C(C#N)c3nc(N)c(C#N)c(C)c32)ccc1OCC(=O)O,inactive: 26.8%,–
O=[N+]([O-])c1cccc2cn[nH]c12,–,inactive
COC(=O)C(c1ccccc1Cl)N1CCc2sccc2C1 (stereo not given),–,inactive
CC(=O)O[C@H]1C(=O)[C@@]2(C)[C@H]([C@H](OC(=O)c3ccccc3)[C@]3(O)C[C@H](OC(=O)[C@H](O)C(NC(=O)c4ccccc4)c4ccccc4)C(C)=C1C3(C)C)[C@]1(OC(C)=O)CO[C@@H]1C[C@@H]2O (stereo not given in full),inactive: -0.582%,–
Cc1ccc(CSc2nc3c(c(=O)[nH]2)C(c2cccc(F)c2F)CC(=O)N3)cc1 (stereo not given),–,active: 8.91 µM [quencher]
N[C@H](C(=O)O)c1cc(O)cc(O)c1,–,inactive
CCCCC1=CC2=CC(=O)C(C)(OC(=O)c3cnc4ccccc4n3)C(=O)C2=CO1 (stereo not given),inactive: -1.23%,–
S=C([S-])NCCNC(=S)[S-].[Mn+2],–,inactive
CC1=C(C#N)C(NC(=O)c2cccc(Cl)c2)(C(F)(F)F)C(=O)N1 (stereo not given),inactive: -0.917%,–
CCOCCOC(=O)c1ccc(NC(=O)/C=C/c2ccc(OC)c(OC)c2)cc1,–,active: 0.891 µM [quencher]
CSc1ccc(CCNC(=O)c2ccc(-n3c(C)cc4c3CCC(C)C4)cc2)cc1 (stereo not given),–,active: 22.4 µM [quencher]
CC(=O)c1ccc(S(=O)(=O)NC(=O)NC2CCCCC2)cc1,–,inactive
CCOc1ccc(CCNC(=O)CSc2cc(=O)n(C)c3ccc(Cl)cc23)cc1OCC,inactive: 0.757%,–
O=C(Cn1ccnc1[N+](=O)[O-])NCCO,inactive: -1.1%,–
CCN(CC)C(=O)C1=C(C)Nc2nc3ccccc3n2C1c1cccc(OC)c1 (stereo not given),inactive: -2.9%,–
CCc1ccc(CN(C(=O)Nc2cccc(Cl)c2)c2ccccn2)cc1,–,active: 355 µM [quencher]
CC(C)NCC(O)COc1ccc(COCCOC(C)C)cc1 (stereo not given),–,inactive
Cc1ncc([N+](=O)[O-])n1CCO,–,inactive
CC(C)NC[C@@H](O)COc1ccc(COCCOC(C)C)cc1,inactive: 1.54%,–

Structure (SMILES),"fluorescence change, negative = quenching",Potency
Cc1cc(NC(=O)CSc2cc(Cl)ccc2Cl)n(-c2ccccc2)n1,–,active: 31.6 µM [quencher]
Nc1nc(-c2c[nH]c3ccccc23)cs1,–,active: 35.5 µM [fluorescent]
CC1(C)O[C@@H]1COc1c2ccoc2cc2oc(=O)ccc12,inactive: 0.0917%,–
CC(=O)OC1C(=O)[C@@]2(C)C(O)CC3OC[C@]3(OC(C)=O)C2C(OC(=O)c2ccccc2)[C@]2(O)CC(OC(=O)C(O)C(NC(=O)c3ccccc3)c3ccccc3)C(C)=C1C2(C)C (stereo not given in full),inactive: -1.25%,–
CCOc1cc(CNc2ccc(N(C)C)cc2)cc(Br)c1OCC(=O)NC(C)(C)C,–,active: 44.7 µM [fluorescent]
CC1=C(\C=C/C(C)=C/C=C\C(C)=C\C(=O)O)C(C)(C)CCC1,–,inactive
O=C1SC(Nc2ccc(Cl)cc2)C(=O)N1Cc1ccccc1 (stereo not given),–,active: 0.0032 µM [quencher]
COC1C=CO[C@@]2(C)Oc3c(C)c(O)c4c(O)c(c5c(nc6cc(C)ccn65)c4c3C2=O)NC(=O)/C(C)=C\C=CC(C)C(O)[C@@H](C)C(O)C(C)[C@@H](OC(C)=O)C1C (stereo not given in full),inactive: -5.12%,–
NS(=O)(=O)c1cc2c(cc1Cl)NCNS2(=O)=O,–,inactive
Cc1ccc(C)c(CN2C(=O)c3ccccc3S(=O)(=O)c3ccc(C(=O)N4CCOCC4)cc32)c1,–,active: 2.82 µM [quencher]
O=C(CSc1ccc2ccccc2n1)Nc1nsc(-c2ccc(Cl)cc2)n1,inactive: 2.16%,–
NCC(O)c1ccc(O)c(O)c1 (stereo not given),inactive: 2.37%,–
CCCCCCCCCCCCC/C=C\[C@@H](O)[C@@H](N)CO,inactive: -0.0229%,–
Cc1cc(C)n2c(Nc3ccc(Cl)cc3)c(-c3ccsc3)nc2n1,–,active: 1120 µM [quencher]
O=C(NC(NC(=S)Nc1ccc(F)c([N+](=O)[O-])c1)C(Cl)(Cl)Cl)C(c1ccccc1)c1ccccc1 (stereo not given),inactive: 0.548%,–
CCN(CC)CCNC(=O)c1ccc(NC(C)=O)cc1,–,inactive
Cc1ccc(-n2c3c(c(=O)[nH]c2=O)C(NS(=O)(=O)c2ccc(Cl)cc2)(C(F)(F)F)C(=O)N3)cc1 (stereo not given),inactive: -1.82%,–
O=C(O)[C@@H]1C[C@@H](C(=O)O)N1,–,inactive
Cc1ccc(CN(Cc2ccco2)C(=O)COc2ccc(C(C)C)cc2)cc1,–,active: 0.0006 µM [quencher]
CCOC(=O)Cc1cc(=O)n2[nH]c(C)c(-c3ccccc3)c2n1,–,active: 44.7 µM [fluorescent]
Cn1c(CN2CCCCC2)nc2cc(NC(=O)c3ccc(Cl)cc3)ccc21,inactive: -4.12%,–
Cc1c(C)c2c(c(C)c1O)CC[C@@](C)(CCC[C@@H](C)CCC[C@@H](C)CCCC(C)C)O2,inactive: -2.09%,–

Structure (SMILES),"fluorescence change, negative = quenching",Potency
Cc1ccc2[nH]c(=O)c3cc(C(=O)N(CCCOC(C)C)Cc4ccco4)sc3c2c1,inactive: -0.12%,–
CNC(=O)[C@H]1O[C@@H](n2cnc3c(N)ncnc32)[C@H](O)[C@@H]1O,inactive: -2.4%,–
Clc1ccc2c(c1)C(N1CCNCC1)=Nc1ccccc1O2,–,inactive
O=C(c1ccc(C(F)(F)F)cc1)N1CCC(=O)N(C(COCc2ccc(Cl)cc2)Cc2ccccc2)CC1 (stereo not given),inactive: -0.96%,–
CCc1ccc(NC(=O)COC(=O)CCCC2=NS(=O)(=O)c3ccccc3N2)cc1,inactive: -0.291%,–
CC(=O)c1ccc(N2CCN(C(=O)Nc3ccc(C(C)C)cc3)CC2)cc1,inactive: -8.48%,–
COc1ccccc1N1CCN(C(=O)CNS(=O)(=O)c2ccc(Br)s2)CC1,–,active: 79.4 µM [quencher]
O=C(O)[C@H]1CN(CCCP(=O)(O)O)CCN1,–,inactive
COc1cccc(NC(=O)OCCN2CCN(Cc3ccccc3)CCC2=O)c1,inactive: -0.975%,–
O=C(/C=C/c1ccc(O)c(O)c1)OC(Cc1ccc(O)c(O)c1)C(=O)O (stereo not given),–,inactive
O=c1n(Cc2ccc([N+](=O)[O-])cc2)c2ccccc2c2nc(-c3ccccc3)nn12,–,active: 100 µM [quencher]
COc1ccc(-c2cc(=O)c3ccccc3o2)cc1,inactive: 1.23%,–
Cc1cc(-c2ccc(N=Nc3ccc4c(S(=O)(=O)O)cc(S(=O)(=O)O)c(N)c4c3O)c(C)c2)ccc1N=Nc1ccc2c(S(=O)(=O)O)cc(S(=O)(=O)O)c(N)c2c1O,–,active: 17.8 µM [fluorescent]
O=C1C[C@@H]2CCN3C(=O)CCC[C@@H]([C@H]23)[C@@H]1Cc1ccccc1,inactive: 1.84%,–
O=C(O)c1cc(O)c2c(c1)[C@H]([C@H]1c3cc(C(=O)O)cc(O)c3C(=O)c3c(O[C@@H]4OC(CO)C(O)C(O)C4O)cccc31)c1cccc(O[C@@H]3OC(CO)C(O)C(O)C3O)c1C2=O (stereo not given in full),–,active: 22.4 µM [quencher]
CC(NC(=O)/C(=C\c1cccc([N+](=O)[O-])c1)NC(=O)c1ccco1)C(=O)O (stereo not given),inactive: -3.76%,–
Cc1ccc(NC(=O)CSc2nc(C)c(Cc3ccccc3)c(=O)[nH]2)cc1C,inactive: -0.944%,–
O=C1c2c(O)cccc2Cc2cccc(O)c21,inactive: -6.83%,–
Cc1cccc(Oc2nc3c(c(=O)n(C)c(=O)n3C)n2C)c1,inactive: -1.12%,–
COc1ccc(C(=O)COC(=O)CCN2C(=O)C3C4CC(C(Br)C4Br)C3C2=O)cc1 (stereo not given),inactive: 0.441%,–
Cc1cccc(NC(=O)CCn2cnnn2)c1,inactive: -0.662%,–
N[C@@H](CS(=O)O)C(=O)O,–,inactive

Structure (SMILES),"fluorescence change, negative = quenching",Potency
Cc1cc(C)cc(NC(=O)CSc2nc3c(c(=O)[nH]2)CN(Cc2ccc(F)cc2)CC3)c1,inactive: -0.992%,–
N#C/C(=C\c1ccc(N2CCOCC2)o1)C(=O)N1CCOCC1,inactive: 0.512%,–
Cc1cc(O)c(C=O)c2c1C(=O)Oc1c(CO)c(O)c3c(c1O2)C(O)OC3=O (stereo not given),–,active: 11.2 µM [quencher]
OCCN(CCO)c1nc(N2CCCCC2)c2nc(N(CCO)CCO)nc(N3CCCCC3)c2n1,–,inactive
COc1ccccc1CNc1nc2nc(C)c(Cl)c(C)n2n1,–,active: 0.0224 µM [quencher]
O=C(O)[C@@H]1C[C@H](C(=O)O)N1,inactive: -3.3%,–
NS(=O)(=O)c1cc2c(cc1Cl)NC(C1CC3C=CC1C3)NS2(=O)=O (stereo not given),inactive: -0.923%,–
O=c1oc2c(O)c(O)cc3c(=O)oc4c(O)c(O)cc1c4c23,inactive: -12.5%,–
O=C(NCC(c1cccnc1)N1CCc2ccccc2C1)C(=O)Nc1ccc(F)cc1F (stereo not given),–,active: 2.82 µM [quencher]
COc1cccc2c1C(=O)c1c(O)c3c(c(O)c1C2=O)C[C@@](O)(C(C)=O)C[C@@H]3O[C@H]1C[C@H](N)[C@H](O)[C@H](C)O1,inactive: -3.62%,–
COC(=O)C1=C(C)N(Cc2ccccc2)[C@]23O[C@](C(=O)OC)(C(=O)N2C1c1ccccc1)C1CCCC(=O)C13 (stereo not given in full),inactive: -4.45% [at 11.2 µM],–
OCC1NCC(O)C(O)C1O (stereo not given),inactive: 2.45%,–
O=C(NCCc1ccccc1)c1nnc(Cc2cccc(F)c2)o1,–,active: 0.0056 µM [quencher]
CC(=O)O[C@H]1C(=O)[C@@]2(C)[C@H]([C@H](OC(=O)c3ccccc3)[C@]3(O)C[C@H](OC(=O)[C@H](O)[C@@H](NC(=O)c4ccccc4)c4ccccc4)C(C)=C1C3(C)C)[C@]1(OC(C)=O)CO[C@@H]1C[C@@H]2O,–,inactive
C[C@@]12C=Cc3occc3[C@H]1CC[C@@]13C[C@@H](CC[C@H]12)[C@@](O)(CO)C3,inactive: -11.1%,–
O=C(COC(=O)c1ccccc1NS(=O)(=O)c1cccs1)NC1CCCCC1,–,active: 112 µM [quencher]
COc1cc(-c2nc3sccn3c2Nc2c(C)cccc2C)ccc1O,–,active: 0.004 µM [quencher]
Cc1cc2c(cc1NS(=O)(=O)c1ccc(Br)cc1)n(C)c(=O)c(=O)n2C,–,active: 2240 µM [quencher]
CCCc1cc(=O)[nH]c(SCC(=O)N2CCN(c3ccccc3)CC2)n1,inactive: 0.0118%,–
